Reference: PubChem BioAssay (NCATS)
Inconclusive results, whose numbers are uncertain, are shown with a selection of clear calls. Potencies beside an inconclusive call are fits to weak or partial responses and may not hold up. The source made the active and inactive calls. The call rests on the fitted dose curve; in most records, active means well fitted cell-killing curve with a large enough effect; inconclusive means small, poorly fitted or top-dose-only effect, or effect the other way; inactive means no such curve, though single readings can be large or run the other way.

Key:
[1] = Viability qHTS for spleen associated tyrosine kinase inhibitor (SYKi) naive MV4-11 cells (AID 1963823); conditions: MV4-11 AML viability, CellTiter-Glo luminescence, 72 h; viability (% of control): at 45 µM (top of the series); further: nearly all actives have a fitted effect of over 40% in size
Method in brief: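 Luminescence from CellTiter-Glo, developed 10 min at room temperature, gave viability of MV4-11 cells never exposed to SYK inhibitor. Cells (500/well) had been incubated with compounds for 72 hr under standard culture conditions.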

[2] = Viability qHTS for spleen associated tyrosine kinase inhibitor (SYKi) drug resistant MV4-11 cells (AID 1963824); conditions: SYKi-resistant MV4-11 viability, CellTiter-Glo, 72 h; series mostly up to 45 µM; further: nearly all actives have a fitted effect of over 35% in size
Method in brief: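 SYK-inhibitor-resistant MV4-11 AML cells were seeded at 500 per well onto compound and cultured 72 hours (37 °C, 5% CO2). CellTiter-Glo was then added, and after 10 min at room temperature, luminescence gave viability.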
Potency means the concentration at half of the fitted maximal effect; tags describe the fitted curve by direction and shape.

| Structure (SMILES) | Potency [1] | Potency [2] | viability (% of control) [1] | viability, % of control [2] |
| --- | --- | --- | --- | --- |
| CN1C(=O)CC(c2ccccc2)C1=O (centres undefined) | inactive | inconclusive: 0.0024 µM [rising, full curve, poor fit] | – | – |
| O=C(O)c1c[nH]c2c(ccc3ccccc32)c1=O | active: 23.1 µM | inconclusive: 18.4 µM [cytotoxic, single point] | – | – |
| COc1cc(O)ccc1OCCNCC(O)COc1cccc2[nH]c3ccccc3c12 (centres undefined) | inconclusive: 8.2 µM [cytotoxic, partial curve] | inconclusive: 9.2 µM [cytotoxic, partial curve] | – | – |
| CNC(=O)c1ccc2c(c1)CCO[C@H]2CCN1CCN(c2ccc(OC)cc2)CC1 | inconclusive: 16.4 µM [cytotoxic, single point] | inconclusive: 23.1 µM [cytotoxic, partial curve] | – | – |
| Cc1[nH]cnc1C1CCN(c2nc3cccc4c3n2CCC4=O)CC1 | inconclusive: 16.4 µM [cytotoxic, partial curve, poor fit] | inconclusive: 20.6 µM [cytotoxic, single point] | – | – |
| O=C(Nc1cc(-c2ccccc2)nn1-c1ccccc1F)c1ccc([N+](=O)[O-])cc1 | inconclusive: 18.4 µM [cytotoxic, single point] | inconclusive: 18.4 µM [cytotoxic, partial curve] | – | – |
| COc1cc(O)cc(C)c1C(=O)OC1C(CO)OC(OC2C(O)C(O)C(O)C(O)C2O)C(O)C1O (centres undefined) | inactive | inactive | – | – |
| Cc1c(N(C)C)c(=O)n(-c2ccccc2)n1C | inactive | inactive | – | – |
| O=C(CSc1nc2c(c(=O)n1-c1ccccc1)SCC2)Nc1ccc(-c2ccccc2)cn1 | inconclusive: 0.0231 µM [cytotoxic, full curve] | inconclusive: 0.0366 µM [cytotoxic, full curve] | – | – |
| OCCc1ccc(O[C@@H]2O[C@H](CO)[C@@H](O)[C@H](O)[C@H]2O)c(O)c1 | inactive | inactive | – | – |
| O=C1C(=O)c2ccccc2C(O)=C1C1CCC(c2ccc(Cl)cc2)CC1 (centres undefined) | inactive | inactive | – | – |
| COc1ccc2c(c1O)OC[C@H]1c3ccc(O)cc3O[C@@H]21 | inconclusive: 20.6 µM [cytotoxic, single point] | inconclusive: 11.6 µM [cytotoxic, partial curve, poor fit] | – | – |
| COc1c(CCC(=O)O)cccc1O[C@@H]1O[C@H](CO)[C@@H](O)[C@H](O)[C@H]1O | inactive | inactive | – | – |
| CCc1c(C(=O)NNC(=O)[C@@H](O)c2cc(F)cc(F)c2)ccc(O)c1C | inconclusive: 13.2 µM [cytotoxic, partial curve] | active: 9.2 µM | – | – |
| C[n+]1ccc(-c2c3nc(c(-c4cc[n+](C)cc4)c4ccc([nH]4)c(-c4cc[n+](C)cc4)c4nc(c(-c5cc[n+](C)cc5)c5ccc2[nH]5)C=C4)C=C3)cc1 | inactive | inconclusive: 20.6 µM [cytotoxic, partial curve, poor fit] | – | – |
| COC(=O)C1=CO[C@@H](O[C@@H]2O[C@H](CO[C@@H]3O[C@H](CO)[C@@H](O)[C@H](O)[C@H]3O)[C@@H](O)[C@H](O)[C@H]2O)[C@@H]2C(CO)=CC[C@H]12 | inconclusive: 8.93 µM [cytotoxic, single point] | inconclusive: 10 µM [cytotoxic, single point] | – | – |
| O=C(c1ccc(F)cc1)C1CCN(CCn2c(=O)nc3n(c2=O)CCCC3)CC1 | inactive | inactive | – | – |
| CC[C@]12CCCN3CCc4c(n(c5ccccc45)[C@@](O)(C(=O)OC)C1)[C@@H]32 | inactive | inactive | – | – |
| C=C(CC/C=C(\C)C(=O)O)C1(O)CC=C(C)CC1 (centres undefined) | inactive | inconclusive: 9.2 µM [cytotoxic, partial curve, poor fit] | – | – |
| Cc1c(Cc2ccc3ccccc3n2)c2cc(F)ccc2n1CC(=O)O | inconclusive: 14.6 µM [cytotoxic, partial curve, poor fit] | inconclusive: 2.91 µM [cytotoxic, full curve] | – | – |
| CC1OC(OCC2OC(OC3CCC4(C)C(CCC5(C)C4CC=C4C6CC(C)(C)CCC6(C(=O)OC6OC(CO)C(O)C(O)C6O)CCC45C)C3(C)CO)C(O)C(O)C2O)C(O)C(O)C1O (centres undefined) | – | – | inactive: 79.6% [at 9.25 µM] | inactive: 96.2% [at 9.25 µM] |
| C=C(C)C1=C[C@@]2(C)C(=CC1=O)CC[C@@H](O)[C@@H]2C | inconclusive: 18.4 µM [cytotoxic, single point] | inconclusive: 20.6 µM [cytotoxic, partial curve] | – | – |
